The whole screen tested about 350,000 compounds, of which about 260 (0.074%) were called active. The shares of active, inactive and inconclusive entries below differ from those in the screen. Calls follow the shape of the dose curve; as a rule, active = well fitted inhibition curve with a large enough effect; inconclusive = small, poorly fitted or top-dose-only effect; inactive = no such curve, though single readings can be large or run the other way. Potencies of inconclusive entries are doubtful fits and often do not repeat.
Molecular target: Ferritin light chain (Equus caballus) (UniProt P02791)
Chain of UniProt P02791 (P02791 whole entry, looked up): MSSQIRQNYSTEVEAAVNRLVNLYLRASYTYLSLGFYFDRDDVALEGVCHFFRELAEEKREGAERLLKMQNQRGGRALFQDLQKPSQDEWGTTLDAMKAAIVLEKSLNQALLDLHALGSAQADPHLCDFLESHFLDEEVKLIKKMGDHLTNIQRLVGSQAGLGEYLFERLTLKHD
Assay: qHTS Assay for Identification of Novel General Anesthetics; also: nearly all actives have a fitted effect of over 20% in size
Settings: apoferritin/1-aminoanthracene competitive binding, fluorescence; series mostly up to 77.5 µM
Outline: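 Steps: apoferritin (10 uM) was premixed with half-saturated 1-AMA in PBS, compounds were pin-transferred, plates stood 10 min at room temperature, fluorescence was read at 380/535 nm, and curves were fitted with a Hill equation.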
Tags tell the direction and shape of the fitted curve.

With CCCOc1ccc(OC(=O)c2ccc(Br)o2)cc1 as the compound, how does the Potency read?
The Potency was inconclusive: 22.4 µM [inhibitor, partial curve].

CCc1ccc(NC(=O)CSc2nnc(-c3cnccn3)n2Cc2ccco2)cc1 was tested. Which Potency did it give?
The Potency was inconclusive: 25.1 µM [inhibitor, partial curve].

Which Potency does the source give for Cc1ccc(SCC(=O)Nc2ccc(N3CCN(C)CC3)c(F)c2)c(C)c1 here?
Its Potency is inconclusive: 31.6 µM [inhibitor, partial curve].

Which Potency does the source give for O=C(NC(=S)Nc1cccc(Cl)c1N1CCCCC1)c1ccco1 here?
Its Potency is inconclusive: 31.6 µM [inhibitor, partial curve].

How did the Potency turn out when Cc1cccc(OCCNc2ccc([N+](=O)[O-])cn2)c1 was run?
The Potency was inconclusive: 31.6 µM [inhibitor, partial curve].

How did the Potency turn out when Oc1c(C(c2ccccc2Cl)N2CCCC2)ccc2cccnc12 (configuration not stated) was run?
Its Potency is inconclusive: 12.6 µM [inhibitor, partial curve].

With Cc1ccc(C(=O)N2CCN(c3ccc([N+](=O)[O-])cc3-n3cccc3)CC2)cc1 as the compound, how does the Potency read?
The Potency was inconclusive: 15.8 µM [inhibitor, partial curve].

O=C(COC(=O)CNC(=O)c1cccc([N+](=O)[O-])c1)Nc1cccc(S(=O)(=O)N2CCCCC2)c1 was tested. Which Potency did it give?
Its Potency is inconclusive: 28.2 µM [inhibitor, partial curve].

How did the Potency turn out when O=C1CS/C(=N/N=C2C3CC4CC(C3)CC2C4)N1 was run?
The Potency was inconclusive: 39.8 µM [inhibitor, single point].

Cc1ccc(/C=C2\SC(=S)N(/N=C/c3cc([N+](=O)[O-])ccc3O)C2=O)o1 was tested. Which Potency did it give?
Its Potency is inconclusive: 28.2 µM [inhibitor, partial curve].

COc1ccc(N(C)C(=O)c2oc(=O)c3ccccc3c2-c2ccc(C)cc2)c(OC)c1 was tested. Which Potency did it give?
The Potency was inconclusive: 8.91 µM [inhibitor, partial curve].

Which Potency does the source give for CCOC(=O)c1ccc(N2C(=O)c3n[nH]c(-c4cccs4)c3C2c2cccc(O)c2)cc1 (configuration not stated) here?
Its Potency is inconclusive: 3.16 µM [inhibitor, full curve].

For O=C(CCC1N=C2c3ccccc3N=C(SCc3ccc(F)cc3)N2C1=O)N1CCN(c2ccccc2)CC1 (configuration not stated), which Potency is on record?
The Potency was inconclusive: 5.01 µM [inhibitor, full curve].

How did the Potency turn out when COc1ccc(NC(=O)[C@@H]2[C@@H]3C(=O)N(C4CCCCC4)C(=O)[C@@H]3C3c4ccccc4C=CN32)cc1 (some centres not stated) was run?
Its Potency is inconclusive: 39.8 µM [inhibitor, partial curve].

How did the Potency turn out when COc1ccc(CCNC(=O)c2cc3c(=O)n4ccccc4nc3n(Cc3ccco3)c2=N)cc1OC was run?
Its Potency is “inactive”.

For CC1(C)C(CSc2nc3ccccc3[nH]2)C1(Cl)Cl (configuration not stated), which Potency is on record?
Its Potency is inconclusive: 25.1 µM [inhibitor, partial curve].

For O=C(N/N=C/c1ccc(-c2ccccc2[N+](=O)[O-])o1)[C@H]1C[C@@H]1c1ccccc1, which Potency is on record?
Its Potency is inconclusive: 25.1 µM [inhibitor, partial curve].

Which Potency does the source give for O=C(O/N=C(\c1ccccc1)c1ccncc1)c1ccccc1Cl here?
The Potency was “inactive”.

Which Potency does the source give for CCCC(=O)Nc1cccc(NC(=O)c2ccc(C)c([N+](=O)[O-])c2)c1 here?
The Potency was inconclusive: 31.6 µM [inhibitor, partial curve].

How did the Potency turn out when CN(c1ccccc1)c1ccc(/C=C(\C#N)c2nnc3n2CCCCC3)cc1[N+](=O)[O-] was run?
Its Potency is inconclusive: 35.5 µM [inhibitor, single point].

How did the Potency turn out when Cc1cccc(S(=O)(=O)C(C#N)c2nc3ccccc3nc2N2CC(C)OC(C)C2)c1 (configuration not stated) was run?
The Potency was “inactive”.

For O=C(c1ccc2c(c1)OCO2)N1CCCc2ccccc21, which Potency is on record?
The Potency was inconclusive: 25.1 µM [inhibitor, partial curve].

With CC(=O)c1ccc(NC(=O)CSc2nnc3c(n2)[nH]c2ccccc23)cc1 as the compound, how does the Potency read?
Its Potency is inconclusive: 3.98 µM [inhibitor, full curve].

With Cc1nnc(SCC(=O)Nc2ccc(S(=O)(=O)N3CCCC3)cc2)n1N as the compound, how does the Potency read?
The Potency was inconclusive: 25.1 µM [inhibitor, partial curve].

COc1ccc2cc(C(=O)Nc3ccc(S(N)(=O)=O)cc3)sc(=O)c2c1OC was tested. Which Potency did it give?
Its Potency is inconclusive: 35.5 µM [inhibitor, single point].

With CCN(CC)CCN(C(=O)c1ccc(C(=O)c2ccccc2)cc1)c1nc2c(OC)cccc2s1 as the compound, how does the Potency read?
The Potency was inconclusive: 25.1 µM [inhibitor, partial curve].

Which Potency does the source give for CC(C)COC(=O)c1ccc(NC(=O)C2C3C=CC(C3)C2C(=O)O)cc1 (configuration not stated) here?
The Potency was inconclusive: 35.5 µM [inhibitor, partial curve].

How did the Potency turn out when O=C(CSc1ccccc1)Nc1nccs1 was run?
Its Potency is inconclusive: 39.8 µM [inhibitor, single point].

Which Potency does the source give for CCOc1cc(CNc2ccc3c(c2)CCC3)ccc1OC here?
Its Potency is inconclusive: 39.8 µM [inhibitor, partial curve].

With CCO[C@H]1OC(C(=O)N2CCCCCCC2)=C[C@@H](c2csc3ccccc23)[C@@H]1CCCO as the compound, how does the Potency read?
The Potency was inconclusive: 25.1 µM [inhibitor, partial curve].

How did the Potency turn out when CSc1ccccc1OCc1cc(C(=O)NCCC2=CCCCC2)no1 was run?
Its Potency is inconclusive: 35.5 µM [inhibitor, partial curve].

How did the Potency turn out when CN(C(=O)CSc1nnc(N)s1)C1CCCCC1 was run?
The Potency was inconclusive: 31.6 µM [inhibitor, partial curve].

For Cc1cccc(C)c1NC(=O)CN(C)S(=O)(=O)c1ccc(-c2ccc(=O)[nH]n2)s1, which Potency is on record?
Its Potency is “inactive”.

Cc1ccc(C)c(NC2=CC(=O)CC(C)(C)C2)c1C#N was tested. Which Potency did it give?
Its Potency is inconclusive: 56.2 µM [inhibitor, single point].

Cc1cc(C(=O)COC(=O)c2ccncc2)c(C)n1CCc1ccc(F)cc1 was tested. Which Potency did it give?
The Potency was inconclusive: 31.6 µM [inhibitor, single point].

How did the Potency turn out when Cn1cnnc1SCC(=O)Nc1ccc(S(=O)(=O)N2CCCC2)cc1 was run?
Its Potency is inconclusive: 39.8 µM [inhibitor, single point].

CCCOc1ccc(CNC(=O)CCCN2C(=O)CSc3c2c(C)nn3-c2ccccc2)cc1 was tested. Which Potency did it give?
Its Potency is “inactive”.

How did the Potency turn out when O=C(Nc1ccccc1)c1cccc(N2C(=O)C3C4C=CC(C4)C3C2=O)c1 (configuration not stated) was run?
The Potency was inconclusive: 39.8 µM [inhibitor, single point].

Which Potency does the source give for CC(=O)Nc1ccc(C(=O)OCC(=O)NC2CCCCCCC2)cc1 here?
The Potency was inconclusive: 10 µM [inhibitor, partial curve].

For CCOC(=O)c1ccc(N2C(=O)c3n[nH]c(-c4ccco4)c3C2c2cccc([N+](=O)[O-])c2)cc1 (configuration not stated), which Potency is on record?
The Potency was “inactive”.

For Cc1cc(N(C)C)c(C#N)c(NCc2ccccc2)n1, which Potency is on record?
The Potency was inconclusive: 5.01 µM [inhibitor, partial curve].

How did the Potency turn out when Cc1cccc(OCC(=O)N2CCCc3ccccc32)c1 was run?
Its Potency is inconclusive: 12.6 µM [inhibitor, partial curve].

With O=C(NCCCn1cccn1)c1cc(COc2ccc(F)cc2Cl)on1 as the compound, how does the Potency read?
Its Potency is inconclusive: 10 µM [inhibitor, partial curve].

Which Potency does the source give for COc1ccc(N2C(=O)C3C4C=CC(C4)C3C2=O)c(OC)c1 (configuration not stated) here?
Its Potency is inconclusive: 28.2 µM [inhibitor, partial curve].

CCN(CC)S(=O)(=O)c1cccc(C(=O)NC(Cc2c[nH]c3ccccc23)c2nnc3n2CCCCC3)c1 (configuration not stated) was tested. Which Potency did it give?
The Potency was inconclusive: 17.8 µM [inhibitor, partial curve].

Which Potency does the source give for CC(=O)C1C(=O)c2c(cccc2[N+](=O)[O-])C1=Nc1ccccc1C (configuration not stated) here?
The Potency was inconclusive: 11.2 µM [inhibitor, single point].

Which Potency does the source give for CN(C)S(=O)(=O)c1ccc(NC(=O)CN2CCN(c3ccccn3)CC2)cc1 here?
Its Potency is “inactive”.

Which Potency does the source give for Cc1ccc(S(=O)(=O)NCCn2c(C)cc3ccccc32)cc1 here?
Its Potency is inconclusive: 44.7 µM [inhibitor, single point].

For CCC(C)NC(=O)c1ccc(Cn2c(=O)c3cccn3c3cccnc32)cc1 (configuration not stated), which Potency is on record?
Its Potency is inconclusive: 50.1 µM [inhibitor, partial curve].

How did the Potency turn out when COc1cccc(CN2C(=O)c3ccccc3C2C(=O)NCCc2ccccc2)c1 (configuration not stated) was run?
The Potency was “inactive”.

With COc1ccccc1CNC(=O)CSc1nc2nc(C)c(Cc3ccccc3C)c(C)n2n1 as the compound, how does the Potency read?
Its Potency is inconclusive: 3.55 µM [inhibitor, full curve].

How did the Potency turn out when CCOc1ccc(CNC(=O)Cn2nc(N3CCN(c4ccccc4)CC3)ccc2=O)cc1 was run?
The Potency was inconclusive: 14.1 µM [inhibitor, partial curve].

For Cc1ccccc1NC(=O)Cc1cn(C)c2ccccc12, which Potency is on record?
The Potency was inconclusive: 28.2 µM [inhibitor, single point].

How did the Potency turn out when CCOC(=O)c1c(C=O)c(C)n(Cc2ccccc2Cl)c1C was run?
The Potency was inconclusive: 12.6 µM [inhibitor, partial curve].

Cc1ccc(C2=NN(CC(=O)NCc3ccco3)C(=O)CC2)cc1 was tested. Which Potency did it give?
The Potency was inconclusive: 39.8 µM [inhibitor, partial curve].

For Cc1cc(C(=O)COC(=O)CCC(=O)c2ccc3c(c2)OCCO3)c(C)n1Cc1ccco1, which Potency is on record?
The Potency was inconclusive: 20 µM [inhibitor, partial curve].

Which Potency does the source give for Cn1cnnc1SCC(=O)n1c2ccccc2c2ccccc21 here?
Its Potency is inconclusive: 35.5 µM [inhibitor, partial curve].

For Cc1cccc(NC(=O)/C(=C\c2ccc([N+](=O)[O-])o2)NC(=O)c2ccc(Cl)cc2)c1, which Potency is on record?
Its Potency is inconclusive: 28.2 µM [inhibitor, partial curve].

For Cc1ccc(CNC(=O)CN2N=C(c3ccc(C)cc3)CCC2=O)cc1, which Potency is on record?
Its Potency is inconclusive: 2.51 µM [inhibitor, full curve].

For Cc1ccnc(SCc2ccc([N+](=O)[O-])cc2)n1, which Potency is on record?
The Potency was inconclusive: 22.4 µM [inhibitor, partial curve].

How did the Potency turn out when Cc1cc(NC(=O)C23CC4CC(CC(C4)C2)C3)n[nH]1 was run?
The Potency was inconclusive: 44.7 µM [inhibitor, partial curve].

With Cn1c(-c2sccc2OCc2ccccc2)n[nH]c1=S as the compound, how does the Potency read?
The Potency was inconclusive: 31.6 µM [inhibitor, single point].
